According to PubChem BioAssay AID504466 (National Center for Advancing Translational Sciences (NCATS), 2011):
“And” between values parts separate entries of the source, which are not always exact repeats. Identical values can stand only once. Among all 330,000 compounds or so, about 4,200 (1.3%) were called active. The inconclusive results got no clear call from the source; some entries with a clear call stand among them for comparison. The call rests on the fitted dose curve; in most records, active means well fitted activation curve with a large enough effect; inconclusive means small, poorly fitted or top-dose-only effect; inactive means no such curve, though single readings can be large or run the other way. Where the call is inconclusive, the potency comes from a doubtful curve fit.

assay: qHTS screen for small molecules that induce genotoxicity in human embryonic kidney (HEK293T) cells expressing luciferase-tagged ELG1; settings: HEK293T ELG1-luciferase reporter, luminescence, 16 h; series mostly up to 46 µM; activity change, positive = activation: at the top concentration; further: nearly all actives have a fitted effect of over 60% in size; on activity change, positive = activation: % of control where 0% means no effect
Procedure, shortened: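 HEK293T cells expressing luciferase-tagged ELG1 were treated with compound or DMSO for 16 hr at 37°C. Luciferase activity was then read after 30 min with ONE-Glo at room temperature; rising signal flags genetic stress.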
Potency means the concentration at half of the fitted maximal effect; tags describe the fitted curve by direction and shape.

Compound | Potency | activity change, positive = activation
Cc1cc(NC(=O)c2cnn3cccnc23)no1 | active: 4.11 µM | 
CC(=O)Nc1ccc(S(=O)(=O)N2CCN(Cc3ccccc3[N+](=O)[O-])CC2)cc1 |  | inactive: -16%
O=C(Nc1nc(-c2ccccc2)cs1)c1ccc(=O)[nH]c1 | inconclusive: 23.1 µM [activator, partial curve, poor fit] | 
Cc1cc(C(=O)CSc2cccc[n+]2[O-])c(C)n1-c1ccc(Br)cc1 | inconclusive: 18.3 µM [activator, single point] | 
C/C=C(/C)C(=O)Nc1cccc(C2=NOC3(C2)C[C@@H](C(N)=O)N(C(=O)c2ccc(OC)cc2)C3)c1 (stereo partly specified) |  | inactive: 4%
Cc1cc(C(=O)CSc2nnnn2-c2ccccc2)c(C)n1CC1CCCO1 (stereo unspecified) | inconclusive: 2.59 µM [activator, full curve] | 
COC(=O)c1sccc1N/N=C/c1cccc(Oc2ccccc2)c1 | active: 2.31 µM | 
N/C(=N\OC(=O)c1cccc(F)c1)c1ccccn1 | inconclusive: 2.31 µM [activator, partial curve] | 
O=c1oc(-c2ccc(O)c(O)c2)cc2cc(O)cc(O)c12 | inconclusive: 8.2 µM [activator, partial curve] | 
CC(C)COc1ncnc2c1sc1nc3c(cc12)COC(C)(C)C3 | inconclusive: 13 µM [activator, partial curve, poor fit] | 
CCCc1ccc(OCc2ccc(C(=O)N/N=C/c3cccnc3)o2)cc1 | active: 0.82 µM | 
COc1cc(CNc2ncn[nH]2)ccc1OCc1ccccc1C | inconclusive: 25.9 µM [activator, partial curve, poor fit] | 
Fc1c(F)c(F)c(SCn2cc(Br)cn2)c(F)c1F |  | inactive: 0.235%
O=C(Oc1ccc2ccccc2c1)c1ccccc1 | inconclusive: 25.9 µM [activator, partial curve, poor fit] | 
Cc1cc(C)c(OCC(=O)Nc2cccc(O)c2)cc1C | active: 5.17 µM | 
COCCn1c(C)cc(C(=O)CSc2nc3ccccc3s2)c1C | inconclusive: 0.461 µM [activator, full curve] | 
CCCOc1ccc(/C=C/C(=O)Nc2ccc([N+](=O)[O-])cc2)cc1 |  | inactive: -6.1%
CCCCc1c(C)nn(-c2nnc3c4ccccc4n(C)c3n2)c1C |  | inactive: 2.51%
O=C(Nc1cccc(S(=O)(=O)N2CCOCC2)c1)C1CCN(S(=O)(=O)c2ccccc2)CC1 |  | inactive: -2.95%
COc1ccccc1N=C(C)C1=C(O)CC(c2ccccc2)CC1=O (stereo unspecified) | inconclusive: 20.6 µM [activator, single point] | 
Cc1cc(=O)oc2cc(NC(=O)c3ccccc3Cl)ccc12 | active: 14.6 µM | 
CCOc1cccc(OCCn2cnc3ccccc3c2=O)c1 | inconclusive: 23.1 µM [activator, partial curve, poor fit] | 
Cn1nc(CC(=O)Nc2cccc3ncccc23)c2ccccc2c1=O |  | inactive: -9.17%
O=C(CNC(=O)c1ccccc1F)N/N=C/c1ccc2c(c1)OCO2 | inconclusive: 5.17 µM [activator, full curve] | 
Cc1oncc1C(=O)Nc1cccc2ccccc12 |  | inactive: 3.95%
COc1ccc(/C=N/n2cnc3c([nH]c4ccc(F)cc43)c2=O)cc1CSc1ccccn1 | inconclusive: 16.4 µM [activator, partial curve, poor fit] | 

Compound | Potency | activity change, positive = activation
COc1ccc(C(=O)NCCc2c[nH]c3ccccc23)cc1 | active: 9.2 µM | 
O=C(CSc1nc2ccccc2[nH]1)c1ccc2c(c1)OCO2 | active: 13 µM | 
COc1cccc(NC(=O)c2cnn(-c3ccccc3)c2C)c1 | active: 1.83 µM | 
O=C(CSc1ncnc2ccccc12)c1ccco1 | inconclusive: 16.4 µM [activator, partial curve, poor fit] | 
O=C(c1ccc(Cl)s1)N1CCc2ccccc21 | active: 6.51 µM | 
O=C(COc1ccc(CO)cc1)Nc1ccc(F)cc1 | inconclusive: 20.6 µM [activator, single point] | 
C/C(=N/NC(=O)c1cccs1)c1c(C)[nH]n(-c2nc3ccccc3s2)c1=O | inconclusive: 2.91 µM [activator, full curve, poor fit] | 
CCCCOC(=O)c1[nH]c(C)c(C(=O)OC)c1C | inconclusive: 10.3 µM [activator, single point] | 
COC(=O)Cc1ccc(NC(=S)N2CCN(C)CC2)cc1 |  | inactive: 11.3%
O=C(c1cc(-c2ccccc2O)on1)N1CCCCCC1 | active: 23.1 µM | 
CC(C)Nc1cc(C(C)(C)C)nc2c(-c3ccccc3)cnn12 | inconclusive: 23.1 µM [activator, partial curve, poor fit] | 
Cc1ccsc1/C=C(\CC(=O)O)c1nc2ccccc2o1 | inconclusive: 25.9 µM [activator, partial curve, poor fit] | 
CCc1ncc(/C=C2\C(=O)Nc3ccccc32)[nH]1 |  | inactive: 5.56%
N/C(=N\OC(=O)c1ccc(Cl)cc1)c1ccc(Cl)cc1 | inconclusive: 16.4 µM [activator, single point] | 
c1ccc(-c2nc3ccccc3s2)nc1 | inconclusive: 2.59 µM [activator, full curve, poor fit] and inconclusive: 3.26 µM [activator, full curve, poor fit] | 
CCNC(=O)c1cc(S(=O)(=O)N2CCSCC2)ccc1OC |  | inactive: -0.575%
Fc1ccc(-c2nnc(Cc3ccc(Cl)cc3)o2)cc1 | inconclusive: 18.3 µM [activator, partial curve, poor fit] | 
O=C(N/N=C/c1cccnc1)c1ccco1 |  | inactive: 1.17%
CCCC(CCC)c1nnc(NC(=O)c2ccco2)s1 |  | inactive: 1.21%
S=C(c1ccc(-c2ccc(Cl)c(Cl)c2)o1)N1CCOCC1 | active: 6.51 µM | 
Cc1cc(-c2ccc(Cl)cc2)oc(=O)c1NC(=O)c1ccccc1 |  | inactive: 0.412%
Cc1ccc(C)c(NC(=S)Nc2ncccc2C)c1 | inconclusive: 14.6 µM [activator, partial curve, poor fit] | 
COc1cccc(CN(C)CC(=O)Nc2cc3oc4ccccc4c3cc2OC)c1 |  | inactive: 0.137%
COc1cccc(C(=O)Nc2ccc(C)cc2)c1 | active: 1.84 µM | 
CCSc1nnc(NC(=O)c2ccc3c(c2)OCO3)s1 | active: 2.06 µM | 
CCC1CCCCN1CCCNC(=O)c1cn(CC)c2ccc(S(=O)(=O)N3CCc4ccccc4C3)cc2c1=O (stereo unspecified) |  | inactive: 10.1%

Compound | Potency | activity change, positive = activation
O=C(CSc1nnc(-c2ccc([N+](=O)[O-])cc2)o1)Nc1ccccn1 | inconclusive: 1.64 µM [activator, full curve] | 
COc1ccc(NC(=S)Nc2ccc(OC(F)F)cc2)cn1 |  | inactive: 0.0781%
Clc1ccccc1-c1nnc(-c2ccccc2Cl)o1 | inconclusive: 18.4 µM [activator, partial curve] | 
O=S(=O)(Nc1ccc(N2CCCCC2)cc1)c1ccc(F)cc1F |  | inactive: 0.251%
NC(=O)c1ccccc1NC(=O)Nc1cccc(Cl)c1 |  | inactive: 8.17%
Cc1[nH]c2ccccc2c1C(=O)/C=C/c1ccccc1Cl | inconclusive: 14.6 µM [activator, partial curve] | 
Cc1c(C(=O)O)[nH]c2c1C(=O)CC(c1ccc(C(C)(C)C)cc1)C2 (stereo unspecified) | inconclusive: 18.3 µM [activator, single point] | 
COc1ccc(C2CC(c3ccc(C)o3)=NN2C(C)=O)cc1 (stereo unspecified) | inconclusive: 20.6 µM [activator, single point] | 
O=C(O)c1cccc(-c2nnn(Cc3ccccc3Cl)n2)c1 | inconclusive: 0.517 µM [activator, full curve] | 
Cc1ccc(-n2nc(-c3ccc(N)cc3)cc2N)cc1 | inconclusive: 23.1 µM [activator, partial curve, poor fit] | 
COc1cc(NC(=S)NC(=O)c2cccs2)ccc1NC(=O)C(C)C |  | inactive: -2.2%
COc1ccc2cc(C(=O)c3ccccc3)c(=O)oc2c1 | inconclusive: 14.6 µM [activator, partial curve, poor fit] | 
CCC1(CC)Cc2ccccc2-c2nc(CCl)[nH]c(=O)c21 | inconclusive: 18.3 µM [activator, partial curve, poor fit] | 
CCCN(CCC)CCCNC(=O)C(NS(=O)(=O)c1ccc2c(c1)CCC(=O)N2)c1ccccc1 (stereo unspecified) |  | inactive: 6.46%
Cc1nn(C)cc1/C=C/C(=O)c1ccccc1 | inconclusive: 2.82 µM [activator, full curve, poor fit] | 
O=C1CCCc2nc3c(cc21)C(O)Oc1c-3ccc2ccccc12 (stereo unspecified) | inconclusive: 2.91 µM [activator, partial curve] | 
Cc1ccc(-c2nc3ccc([N+](=O)[O-])cc3[nH]2)cc1 | inconclusive: 0.517 µM [activator, full curve, poor fit] | 
COc1ccccc1C(=O)Nc1ccccc1N1CCN(C(=O)c2ccc(Cl)cc2)CC1 |  | inactive: -10%
O=C(/C=C/c1ccco1)Nc1ccc(CN2CCOCC2)cc1 | inconclusive: 10.3 µM [activator, partial curve] | 
CN(C(=O)COc1ccc2c(-c3ccccc3)cc(=O)oc2c1)C1CCS(=O)(=O)C1 (stereo unspecified) |  | inactive: 3.09%
COCCN1CCN(C(=O)c2ccc3nc(Cc4ccccc4F)oc3c2)CC1 | inconclusive: 23.1 µM [activator, partial curve, poor fit] | 
Cc1nc(NC(=O)C23CC4CC(CC(C4)C2)C3)sc1Cc1ccc2c(c1)OCO2 | inconclusive: 16.4 µM [activator, partial curve, poor fit] | 
COc1ccc(C(=O)CSc2nn3c(=O)c(C(C)(C)C)nnc3s2)cc1 | inconclusive: 25.9 µM [activator, single point] | 
CN(C)S(=O)(=O)c1cccc(NC(=S)NC23CC4CC(CC(C4)C2)C3)c1 |  | inactive: -16.6%
